Hit rate of the full screen: of about 50,000 compounds, about 800 (1.6%) showed an effect of 50% or more. Some of the results follow.

The target in the assay is Bcl-2-like protein 10 (Homo sapiens) (UniProt Q9HD36). Put plainly: Phenotype converters, Bcl-B/TR3 peptide binding displacement, primary biochemical FP (AID 1240).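 Note: 0% = Bcl-B with tracer peptide and DMSO and 100% = tracer peptide lacking Bcl-B.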 As to conditions: GST-Bcl-B / FITC-TR3 peptide fluorescence polarization; stronger effect = higher value; compound at 3.75 mg/L. (In fluorescence polarisation assays a small probe gives low polarisation when free and higher when bound to something large.)
Sequence of UniProt Q9HD36 (Q9HD36 whole entry, looked up): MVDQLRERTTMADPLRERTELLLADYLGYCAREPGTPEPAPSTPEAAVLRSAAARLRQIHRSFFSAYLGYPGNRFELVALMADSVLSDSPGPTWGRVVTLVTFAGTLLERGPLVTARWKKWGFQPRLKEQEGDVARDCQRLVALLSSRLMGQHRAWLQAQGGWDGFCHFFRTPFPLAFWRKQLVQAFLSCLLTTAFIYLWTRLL
For the compound `COC(=O)c1cc(-c2ccc(/C=C3/N=C(c4ccccc4)OC3=O)o2)ccc1Cl`, the displacement is 23.7%.

With `Cc1[nH]n(-c2ccccc2)c(=O)c1C=Nc1ccc(Cl)cc1`, the displacement came to 1.9%.

As for `C=C(C)COc1ccccc1/C=C1\N=C(c2ccc(F)cc2)OC1=O`, the displacement stood at 1.9%.

`CCOC(=O)CCC(=O)Nc1cc(-c2ccc(F)cc2)[nH]n1`: the displacement stood at 6.2%.

On to `COc1ccccc1/C=C1\SC(N2CCCCCC2)=NC1=O`, for which the displacement came out at 24.8%.

With `O=C1c2cccnc2C(=O)N1c1cccc(-c2nc3ccccc3o2)c1`, the displacement came to 23.6%.

As to `CCOc1cc(OCC)cc(C(=O)NCc2ccccc2)c1`, the displacement was -9.5%.

With `CCCN(C=O)/N=C/c1ccc([N+](=O)[O-])cc1O`, the displacement was -17%.

Consider `Cn1c(=O)c2c(nc(N3CCCCC3)n2C)n(C)c1=O`, for which the displacement came to 3.8%.

`C=CCNC(=O)CN(c1ccc(C(C)C)cc1)S(=O)(=O)c1ccccc1`: the displacement was determined as 3.4%.

For the compound `CCCOc1ccc(Cc2c(O)[nH]c(=S)[nH]c2=O)cc1C`, the displacement was -11.6%.

Turning to `O=C1C(=O)N(CCCn2ccnc2)C(c2ccccc2Cl)/C1=C(\O)c1ccc(Cl)cc1` (stereo not drawn), the displacement was determined as 2.5%.

With `C#CCOc1ccc(/C=C2\C(=O)NC(=O)N(c3ccc(C)cc3)C2=O)cc1Br`, the displacement amounted to 0.6%.

For the compound `O=C1NC(=O)/C(=C\c2cccc([N+](=O)[O-])c2)S1`, the displacement was determined as 11.6%.

For the compound `CC(=O)Nc1ccc(Br)cc1C(NCC(=O)NN)c1ccccc1` (stereo not drawn), the displacement was -6%.

Regarding `Oc1c(Br)cc(Br)cc1/C=N/Nc1nc(N2CCOCC2)nc(N2CCOCC2)n1`, the displacement amounted to 10.4%.

`COc1ccc(/C=C/C(=O)N2CCOCC2)cc1Br`: the displacement came to 13.7%.

Consider `COc1ccc(CN2CCN(C3CCCC3)CC2)cc1OCc1ccccc1`, for which the displacement is -9.7%.

On to `CSc1ccc(C(C2=C(O)CC(C)(C)CC2=O)C2C(=O)CC(C)(C)CC2=O)cc1` (stereo not drawn), for which the displacement was determined as 0.6%.

For the compound `COc1cc(/C=C2\SC(=S)N(c3ccc(C)cc3C)C2=O)cc(Br)c1O`, the displacement is 0.9%.

On to `CSc1ccc(C2CC(=O)Nc3c2cc(Br)c2ccccc32)cc1` (stereo not drawn), for which the displacement was -6.4%.

Take `C/C(NC(=O)c1ccccc1)=C1/C(=O)CC2C1C2(C)C` (stereo not drawn): the displacement was determined as 8.5%.

Consider `CCn1c2ccccc2c2cc(NC(=O)c3ccccc3Cl)ccc21`, for which the displacement is 5%.

Consider `O=C1CC(c2ccccc2)CC2=C1C(c1ccc(F)cc1)Nc1ccccc1N2` (stereo not drawn), for which the displacement was 2.3%.

Turning to `CCOC(=O)C1=C(C)N=c2s/c(=C\c3cc4c(cc3Cl)OCO4)c(=O)n2C1c1cccs1` (stereo not drawn), the displacement was -8.9%.

`COc1ccc(CC(=S)N2CCOCC2)cc1OC`: the displacement is -10.9%.

For `CC(=O)c1ccc2c3c([nH]c2c1)CCCC3`, the displacement is 39.2%.

Take `C=C(C)Cn1c(COc2cccc(C)c2)n[nH]c1=S`: the displacement came to 2.8%.

As for `CN(C)c1ccc(N2C(=O)c3ccccc3C2=O)cc1`, the displacement is -13.5%.

In the case of `CC(C)c1cc(N=NC(=N)N)cc(C(C)C)c1O`, the displacement was -37%.

In the case of `c1ccc(COc2cccc(OCc3ccccc3)c2)cc1`, the displacement is -1.7%.

In the case of `Ic1ccc(-c2nc(-c3ccccn3)no2)cc1`, the displacement worked out at 2.2%.

Take `Cc1cc(=O)[nH]c(SCCOc2ccc(Cl)cc2)n1`: the displacement amounted to 11.1%.

Take `CN(C)CCC(=O)c1cccc([N+](=O)[O-])c1`: the displacement was -11.5%.

Take `Cc1ccc2nc(NC(=O)C3CCCCC3C(=O)O)sc2c1` (stereo not drawn): the displacement is -11%.

In the case of `COc1cc(NC(=O)CCCOc2ccc(Cl)cc2Cl)c2ncccc2c1`, the displacement was -3.6%.

Consider `Cc1ccc(-n2c(O)c(/C=N/n3cnnc3)c3ccccc3c2=O)cc1`, for which the displacement is 5.8%.

Take `COc1ccc(C(CC(=O)c2ccc(C)cc2)Nc2ccc(Cl)cc2)cc1OC` (stereo not drawn): the displacement is 12.7%.

Regarding `O=C(O)C(Cc1ccccc1)N1C(=O)/C(=C/c2cccc3ccccc23)SC1=S` (stereo not drawn), the displacement was 0.4%.

`Cc1c(Cl)c([N+](=O)[O-])nn1CC(=O)Nc1cc(C(F)(F)F)ccc1Cl`: the displacement came to 13%.

Take `COc1ccc(OC)c(C(=O)c2ccc(C(=O)c3cc(OC)ccc3OC)cc2)c1`: the displacement was -4.8%.

For `Cc1c(C(=O)Nc2ccc(Cl)cc2)sc(N)c1C(=O)OC(C)C`, the displacement is -3.4%.

For `O=C(COc1ccc2ccccc2c1)Nc1ccccc1CO`, the displacement is -10.1%.

Turning to `Cc1ccc(S(=O)(=O)Nc2ccccc2C(=O)O)cc1`, the displacement is 2.1%.

In the case of `C=CCc1cccc(/C=N/NC(=O)CSc2ccccn2)c1O`, the displacement is -17.4%.

Regarding `CCC(C)c1ccc(NC(=O)c2ccc(Br)o2)c(O)c1` (stereo not drawn), the displacement was -4%.

As to `CCN(CC)C(=S)SC1CC(=O)N(c2ccccc2)C1=O` (stereo not drawn), the displacement stood at 10%.

For `Clc1ccccc1OCCCCn1ccnc1`, the displacement was determined as 8.5%.

As for `O=C(c1ccccc1)c1ccc2nc(-c3ccc(NC(=O)c4ccccc4Cl)cc3)[nH]c2c1`, the displacement is -9.3%.

As for `COc1ccc(CNc2ncn[nH]2)cc1`, the displacement was 17.1%.

Regarding `CN(CCN(C)/N=C/c1ccc(N(C)C)cc1)/N=C/c1ccc(N(C)C)cc1`, the displacement is 0.8%.

Regarding `O=C(NCC1CCS(=O)(=O)C1)OC1CCCCC1` (stereo not drawn), the displacement was found to be 2%.

Take `Cc1[nH]c2ccc(C(=O)O)cc2c(=O)c1CCC(=O)O`: the displacement is -1.1%.

Turning to `O=C(Nc1ccccc1Cl)C1CN(S(=O)(=O)c2ccccc2)CCN1S(=O)(=O)c1ccccc1` (stereo not drawn), the displacement turned out to be 0.1%.

Regarding `CCNC(=S)NN=Cc1ccc(OCCOc2ccccc2C)cc1`, the displacement is -5.5%.

`COc1ccc(C)cc1NC(=O)C(=O)NCc1ccco1`: the displacement was -16.4%.

On to `Cc1sc(NC(=O)C2C3C=CC(C3)C2C(=O)O)c(C(N)=O)c1C` (stereo not drawn), for which the displacement turned out to be 2.8%.

With `O=[N+]([O-])c1ccc(CN2CCN(Cc3cccnc3)CC2)cc1`, the displacement was -1.7%.

For `c1ccc2c(c1)nc(N1CCCCC1)c1nncn12`, the displacement is -8.5%.

In the case of `O=C(N/N=C\c1cn(Cc2ccc(Cl)c(Cl)c2)c2ccccc12)c1ccc([N+](=O)[O-])cc1`, the displacement is -14.8%.

Turning to `COc1ccc(-n2nc3cc(C)c(NC(=O)c4ccco4)cc3n2)cc1`, the displacement is 5.1%.

Consider `CCOc1cc(C2Nc3ccccc3NC3=C2C(=O)CC(c2ccc(OC)cc2)C3)cc(Cl)c1O` (stereo not drawn), for which the displacement was -0.3%.

Turning to `COC(=O)C1=CN(Cc2ccc(OC)cc2)C=C(C(=O)OC)C1c1cccs1`, the displacement turned out to be 2.9%.

For the compound `O=C(COc1ccc(Cl)cc1Br)N/N=C/c1cccc(OC(=O)c2cccs2)c1`, the displacement worked out at 12.6%.

As for `O=C(COc1ccc(Cl)cc1Cl)n1cc([N+](=O)[O-])cn1`, the displacement is -1.7%.

For the compound `CCCCCCCC(=O)CCCC(=O)Nc1ccc(C)cc1`, the displacement came out at 15.9%.

Consider `Cc1ccc(OCC(=O)Nc2ccc(C)c(C)c2)cc1`, for which the displacement turned out to be 14.5%.

In the case of `Oc1ccccc1C=Nc1cc2c(cc1Br)OCCO2`, the displacement was -4%.

Take `O=C(NC(=S)Nc1ccc(Cl)cc1)c1ccco1`: the displacement is 3.1%.

As to `CC1CCN(C(=O)Nc2cccc(Cl)c2)CC1`, the displacement is 6.4%.

For the compound `Cc1ccccc1C(=O)Nn1cnnc1`, the displacement was 2.4%.

Take `O=C1/C(=C\c2ccc(O)c(O)c2)SC(=S)N1c1cccc(Cl)c1`: the displacement turned out to be 19.2%.

For `Cc1[nH]c2ccc(Br)cc2c1CC(=O)NNS(=O)(=O)c1ccccc1`, the displacement is -2.9%.

The values are drawn from PubChem BioAssay AID1240 (Sanford-Burnham Center for Chemical Genomics, 2008).
